About 540 (0.36%) of roughly 150,000 compounds showed an effect of 50% or more. The list shows a part of the results.

This test concerns Plasmodium falciparum. In words: Primary screen in NF54 nanoGlo assay, in single point, at 2uM, 72h; a lower Z score goes with more inhibition. The settings on record: timepoint 72 hour. Format: functional, Erythrocyte.
On to `C#CCCCCC(=O)Nc1n[nH]c(OC)n1`, for which the “% Inhibition” value is listed as -7% and the Z score was found to be 1.07.

For the compound `O=C1C[C@@H](C(=O)Nc2ccccc2)NC(N2CCCCC2)=N1`, the “% Inhibition” value is recorded as -5% and the Z score stood at 0.85.

Turning to `CN(C)S(=O)(=O)N1CCC[C@H](CNC(=O)c2ccco2)C1`, the “% Inhibition” value is recorded as -2% and the Z score stood at 0.42.

With `COc1cc(Cl)ccc1C(=O)N(C)Cc1c[nH]nc1C`, the “% Inhibition” value is given as -17% and the Z score came to 2.12.

Regarding `CC1CCN(S(=O)(=O)c2cccn(CC(=O)Nc3ccc(Cl)cc3F)c2=O)CC1`, the “% Inhibition” value was -16% and the Z score came out at 1.83.

Consider `CCOC1CC(N(C)C(=O)NCc2ccc3c(c2)COC3)C12CCC2` (centres undefined), for which the “% Inhibition” value worked out at 5% and the Z score is -0.66.

As to `CCOc1ccc(NC(=O)CC2(CC3=Nc4ccccc4S(=O)(=O)N3)CCCC2)cc1`, the “% Inhibition” value is on record as -6% and the Z score was 0.74.

`Cc1c(NC(C)C(C)C)cccc1C(=O)N1CCC[C@H]1C(N)=O` (some centres undefined): the “% Inhibition” value is reported as -4% and the Z score turned out to be 0.8.

Take `CCCn1c(C)nn(-c2cc(N(S(C)(=O)=O)S(C)(=O)=O)c(Cl)cc2Cl)c1=O`: the “% Inhibition” value turned out to be 2% and the Z score is listed as -0.35.

As for `COCCc1ccnc(NC(=O)[C@H]2CCN(C)[C@@H](C)C2)c1`, the “% Inhibition” value is -1% and the Z score came to 0.12.

`O=C(NC[C@]1(O)CCCNC1)c1cccc(-c2nccc3ccccc23)c1`: the “% Inhibition” value was -10% and the Z score stood at 1.2.

Consider `C[C@H]1CS(=O)(=O)N(c2ccc(C(=O)Nc3ccc(C(C)(C)C)cc3)c(Cl)c2)C1=O`, for which the “% Inhibition” value is -8% and the Z score is recorded as 1.04.

On to `CCC(C(=O)N1C2CCC1CC(n1cccn1)C2)c1ccccc1` (centres undefined), for which the “% Inhibition” value was -12% and the Z score is given as 1.56.

As for `CCCc1nc(C(=O)N(Cc2ccncc2)C[C@@H]2CCC(=O)N2)cs1`, the “% Inhibition” value came out at 10% and the Z score was -1.89.

For `CCc1nncn1[C@H]1CCN(S(=O)(=O)c2c(C)nn(C)c2C)C1`, the “% Inhibition” value was -9% and the Z score is 1.57.

As for `Cc1noc(C)c1-c1cc(-c2ccc(Cl)cc2)nc(N2CC[C@H](N)C2)n1`, the “% Inhibition” value is given as -3% and the Z score was found to be 0.63.

On to `COc1ccccc1C(=O)Nc1cc(-c2nccn2C)nn1C`, for which the “% Inhibition” value is reported as -10% and the Z score is 1.48.

Regarding `Cc1nc(-c2ccccc2)ncc1C(=O)N1CCC(N2CCC(O)CC2)CC1`, the “% Inhibition” value is -5% and the Z score was determined as 0.79.

Regarding `c1ccc(NCCc2nc3ccccc3[nH]2)nc1`, the “% Inhibition” value is reported as 4% and the Z score is listed as -0.53.

For the compound `CCc1nn(C)c(Cl)c1CN(C)CCN1CCCCC1=O`, the “% Inhibition” value was 3% and the Z score was -0.48.

Consider `Cc1ccccc1N1CCN(C(=O)CCN2C(=O)c3ccccc3C2=O)CC1`, for which the “% Inhibition” value was -12% and the Z score turned out to be 2.19.

Regarding `Cc1ncsc1C(=O)NCCN[C@@H](C)c1cccc(C#N)c1`, the “% Inhibition” value stood at 13% and the Z score is recorded as -2.28.

In the case of `O=C(Nc1c2c(nn1-c1cccc(Cl)c1)CS(=O)(=O)C2)c1cccc2ccccc12`, the “% Inhibition” value is given as -12% and the Z score is 2.1.

Consider `Cc1ccc(CN2CCOCCNC(=O)[C@H]3CCCC[C@H]32)o1`, for which the “% Inhibition” value was 3% and the Z score is -0.55.

Regarding `Cc1ccc(C(=O)N2CCS(=O)(=O)C[C@H]2C2CC2)c(Cl)c1`, the “% Inhibition” value was -7% and the Z score is on record as 1.1.

In the case of `CN(CC(=O)N(CCn1ccc(C(F)(F)F)n1)C1CCCC1)S(C)(=O)=O`, the “% Inhibition” value was -1% and the Z score is 0.15.

For `CCC(C)(C)NC(=O)c1ccc(F)cc1`, the “% Inhibition” value is on record as -3% and the Z score was 0.64.

As to `O=C1CC(c2ccccc2)N2N=C(N3C(=O)C4CC=CCC4C3=O)NC2=N1` (centres undefined), the “% Inhibition” value was 32% and the Z score is reported as -4.28.

With `CN(C)[C@@H]1CN(C(=O)CC2CCCCC2)CC[C@@H]1CO`, the “% Inhibition” value is -8% and the Z score came out at 1.04.

For `COC1(OC)CCOC[C@@H]1NC(=O)Nc1ccccc1C(F)(F)F`, the “% Inhibition” value was -2% and the Z score was found to be 0.27.

Turning to `COc1ccc(-n2c(=O)c3c(C)n(Cc4ccccc4)c(=O)cc3n2Cc2ccccc2)cc1`, the “% Inhibition” value is recorded as -3% and the Z score is 0.38.

On to `CN(C(=O)c1cc(-c2ccc(F)cc2)[nH]n1)C(C1CC1)C1CC1`, for which the “% Inhibition” value was -14% and the Z score came to 1.48.

For the compound `COCc1ccc(C(=O)N[C@@H](C)c2nc(C3CC3)no2)o1`, the “% Inhibition” value was -13% and the Z score is recorded as 2.2.

In the case of `Cc1cccc(-c2nc(-c3cccc(C(=O)NCCN4CCCC4=O)c3)n[nH]2)c1`, the “% Inhibition” value was determined as 8% and the Z score was -1.09.

On to `COCc1cc(=O)n(CC(=O)Nc2ccc(C(F)(F)F)cc2)c(N2CCCC2)n1`, for which the “% Inhibition” value is reported as -8% and the Z score was 1.25.

Regarding `CCc1csc(CNC(=O)[C@H]2CCS(=O)(=O)C2)n1`, the “% Inhibition” value was -11% and the Z score is 1.05.

As to `O=C1C[C@H](c2ccc(O)c(Cl)c2)c2cnn(Cc3cccs3)c2N1`, the “% Inhibition” value is given as -7% and the Z score was determined as 0.88.

For `CC(C)c1noc([C@H](C)N(C)CC(=O)NC(C)(C)C)n1`, the “% Inhibition” value is -12% and the Z score is 1.95.

For `Cc1noc(C)c1S(=O)(=O)N[C@@H](C)C(=O)NC1CCCCCC1`, the “% Inhibition” value was -9% and the Z score is 1.29.

Consider `Cc1c(CNCc2cccc(Br)c2)c(C(=O)O)c(C)n1-c1ccccc1`, for which the “% Inhibition” value was -8% and the Z score was found to be 1.49.

On to `COCc1nc2c(s1)CN(S(=O)(=O)c1c(C)noc1C)CC2`, for which the “% Inhibition” value is recorded as 1% and the Z score is recorded as -0.15.

As for `O=c1[nH]c2ccccc2nc1-c1cc(Br)ccc1NS(=O)(=O)c1ccccc1`, the “% Inhibition” value was -1% and the Z score was found to be 0.12.

What is called % Inhibition is the relative decrease from the control value, in per cent.

Source of the values: ChEMBL document CHEMBL4888484, “Replenishing the malaria drug discovery pipeline: Screening and hit evaluation of the MMV Hit Generation Library 1 (HGL1) against asexual blood stage Plasmodium falciparum ,using a nano luciferase reporter read-out” (2022).
